Measured values from the RNAGym collection of RNA variant scans (doi:10.7554/elife.90254).
The source gives no read counts; variants with many changes may rest on few reads.

B1: OR4K15 (parent)
chain: GUUAACGGUCAUAGGCCAUGGAAACUAGGAGCACCAUUUCGCUGCCAGUGAAGAAAUGAACAAAGAAAAUCUGGGCCAGGCAGGCAUCAAAAGAAAUAGUCUUGCGCUCAACCAGAAAGUCUGUAAUCAUUUUAAGGGUA

Variants of: B1
Test: self-cleavage, relative activity (ratio to wild type); higher = more cleavage; in vitro, sequencing; the parent is a self-cleaving ribozyme
Work on A33G A51G A52G yielded a self-cleavage of 0.55.
For A33G A66G U87C A110C, the self-cleavage was 0.07.
A33G A67G A78U gave a self-cleavage of 0.18.
In the case of A30U G99A A125G, the self-cleavage is reported as 0.26.
A30G U103C A114G showed a self-cleavage of 0.16.
With G29U A60G A92G A116G the self-cleavage was 0.79.
A30G A54G A56G A89G A96U A111G showed a self-cleavage of 0.03.
A30U U122C U127C gave a self-cleavage of 0.92.
G29U C88U A89G A117U gave a self-cleavage of 0.62.
With A30G A33G U38C A47G A125G G137A the self-cleavage was 0.17.
With A30G A33G A56G A62G A92U U131C the self-cleavage was 0.93.
With A33G A67G A69U A92G A96G the self-cleavage was 1.
With G31A A68G A86U U87C A111G U133A the self-cleavage was 0.01.
A30G A33G A36U A59G U70C A95G G137C showed a self-cleavage of 0.99.
In the case of A30G C40U U72C C121U U122C A125G, the self-cleavage is reported as 0.2.
A30G A33G A47G A52G A111G U130C showed a self-cleavage of 0.02.
A30G U38A A55G A56G gave a self-cleavage of 0.88.
In the case of A30G A59G A62G A82G A86G, the self-cleavage is reported as 0.1.
Work on A30U U43C A67G C77U A86G yielded a self-cleavage of 2.76.
In the case of A33G A60G A78G U97A, the self-cleavage is reported as 0.13.
Variant A33G A82G U108C U132C has a self-cleavage of 0.01.
A30G A68G U124C showed a self-cleavage of 0.68.
In the case of A30G A52G U87C A94U A118U, the self-cleavage is reported as 1.9.
In the case of A33G U39C U43C A64G C112U, the self-cleavage is reported as 0.02.
For A33G U37C A64G U72A A82G, the self-cleavage was 0.04.
A30G A54G A56G showed a self-cleavage of 1.06.
Work on A30C G31A A66G A78U A117G yielded a self-cleavage of 0.32.
Variant A30G U72A A89U U100C A111G G123A U130C U139C has a self-cleavage of 0.
For A30G U43C A91U U124A, the self-cleavage was 1.03.
With A30U A36G U130C the self-cleavage was 0.7.
Variant A30G U37C U132C has a self-cleavage of 1.76.
A33G A69G A94G gave a self-cleavage of 1.02.
A30U A67G G115A A125G showed a self-cleavage of 0.03.
With A30C U72C A82G A86C A90G U100C the self-cleavage was 0.2.
C32U U37C U39C U122C gave a self-cleavage of 1.3.
In the case of A33G A47U A60G U132C, the self-cleavage is reported as 0.13.
With A33G C35U A89G the self-cleavage was 0.7.
Variant A30G U57G A59G A63G has a self-cleavage of 0.87.
A33G A51G A69U showed a self-cleavage of 0.96.
A30G U72C A91G gave a self-cleavage of 0.04.
For A30U A64G A94G A110G U130C, the self-cleavage was 0.16.
With A33G U39C A64G U102A A135G the self-cleavage was 0.72.
A33G U37C U43C U70C U87C showed a self-cleavage of 0.58.
For C32U A54U U97C C113U, the self-cleavage was 0.05.
Work on A30G A90G A126G yielded a self-cleavage of 1.39.
In the case of A30G A59G U103G U122C, the self-cleavage is reported as 0.03.
A30G A89U U122C showed a self-cleavage of 1.3.
Variant A30G A36G U122C has a self-cleavage of 0.75.
Variant G31C A56G A67G A90G has a self-cleavage of 1.32.
A30G A82U A114G U132C showed a self-cleavage of 0.03.
Work on A33G A63G A126G yielded a self-cleavage of 0.42.
With A30G A55G A60G the self-cleavage was 0.73.
With A30U U37C A67G U100C the self-cleavage was 2.19.
A33G A91G A111U A135G showed a self-cleavage of 0.06.
A30U A68G C71A A86G gave a self-cleavage of 0.32.
With A30G A33C A92G A117G the self-cleavage was 1.41.
Variant A30U U120C A126G has a self-cleavage of 0.28.
Variant A33G A98G U133C has a self-cleavage of 0.49.
A30G U39C A64G U102C showed a self-cleavage of 1.12.
In the case of A33G U39C A68G U103C, the self-cleavage is reported as 0.88.
Variant A30U A66G A135U has a self-cleavage of 1.92.
In the case of A30G A33G A56G A64G U122C, the self-cleavage is reported as 0.74.
Work on A30G U49C A52G U70C yielded a self-cleavage of 1.
In the case of A30G A94U U97C G106U G138U, the self-cleavage is reported as 0.01.
A30G A91G A98G showed a self-cleavage of 0.52.
In the case of A33C A68G A82G, the self-cleavage is reported as 0.56.
In the case of A33G U43A G75A A94G, the self-cleavage is reported as 0.13.
A30G A47U G65A A118G showed a self-cleavage of 0.34.
Variant A30G A51U A96G has a self-cleavage of 1.72.
A30G A94U A96G gave a self-cleavage of 0.9.
In the case of A30U U100A U130C, the self-cleavage is reported as 0.39.
For A33G A51U A96G, the self-cleavage was 1.19.
Variant A30G A92G A114G U132C has a self-cleavage of 0.41.
Variant A30U U49C A91G A96G A111G has a self-cleavage of 0.02.
A30U U57G U72C gave a self-cleavage of 0.27.
With A33C U37C G138U the self-cleavage was 2.05.
Variant A30G U87C A92G A116U has a self-cleavage of 0.27.
Variant A33G C34A U120C A135G has a self-cleavage of 0.66.
A33G A91G U103C A118G A135G gave a self-cleavage of 0.1.
A33G A68G G74A showed a self-cleavage of 0.27.
Variant A30U A66G A91C A94G U108C U122C has a self-cleavage of 0.01.
A30G A60G A66G A117G showed a self-cleavage of 1.24.
A33G A54G A55G U97C A117U gave a self-cleavage of 0.33.
In the case of A30G U49C A66G U70C U72C U122G, the self-cleavage is reported as 0.16.
For A30G U39C A51G, the self-cleavage was 0.96.
In the case of A30G U39C A68G A91G U132C, the self-cleavage is reported as 1.24.
A33G A63G A69G showed a self-cleavage of 1.02.
In the case of A30G A68G U102A, the self-cleavage is reported as 1.01.
With A30U A51G A55G A60G A78U the self-cleavage was 0.11.
With G31U A82U A92G the self-cleavage was 0.45.
With A30C U72G A90G the self-cleavage was 0.36.
With A33G A89U U102C the self-cleavage was 1.3.
With A33C A54G A129U the self-cleavage was 1.32.
A30G U39C A126G gave a self-cleavage of 2.34.
Work on A30G A56G A59G yielded a self-cleavage of 1.17.
Work on A33G A47U U102C yielded a self-cleavage of 1.32.
Variant A30G U127C U139C has a self-cleavage of 0.7.
For A33G A56G A60G, the self-cleavage was 0.74.
Work on A30G U37C A91G yielded a self-cleavage of 1.17.
Variant A33G A78G U100C has a self-cleavage of 0.25.
Work on G29U A52G A59U A114G yielded a self-cleavage of 0.1.
In the case of C32U A56G A140G, the self-cleavage is reported as 1.21.
A30G C112A A134G gave a self-cleavage of 0.01.
A30G A55G U70C U131C gave a self-cleavage of 0.72.
For A30U C46U A54G U57A A89U A111G A116G, the self-cleavage was 0.03.
A30U A54G U108C gave a self-cleavage of 0.02.
A33C A67G U130C showed a self-cleavage of 1.15.
Work on A30U G31U A54G A56G A66G U102C yielded a self-cleavage of 2.02.
A30G A56G A98U gave a self-cleavage of 1.42.
With A30U A59C A129G the self-cleavage was 0.61.
Work on A30G U39C A82G A86C yielded a self-cleavage of 0.23.
For A33G U43A A82U U132C, the self-cleavage was 0.06.
C32U A59U U131C showed a self-cleavage of 1.43.
For A33G A118G U120C, the self-cleavage was 0.11.
In the case of A33G A98U A117U, the self-cleavage is reported as 1.44.
A30G U43A A96G G99A A111U U130C gave a self-cleavage of 0.04.
Work on A33G U39C A82U yielded a self-cleavage of 0.29.
For A33G A89U U108C, the self-cleavage was 0.02.
Variant A30C A36G U38C A69G has a self-cleavage of 1.6.
A30G A47U A78U A111G U133C A134U showed a self-cleavage of 0.01.
For A33G A60G A64C, the self-cleavage was 0.58.
In the case of A30G U70C A129G, the self-cleavage is reported as 0.54.
A33G U37C U49C A94G A135G gave a self-cleavage of 0.41.
With A30G U49A A126U the self-cleavage was 0.89.
Work on A33G A60G A62G A66G A89G A91G A92G A134G yielded a self-cleavage of 0.54.
With G29U A36G U38A U49C U131C G138A the self-cleavage was 1.52.
Work on C32U U39C U70C yielded a self-cleavage of 1.17.
In the case of C32U C45G A110G A116G, the self-cleavage is reported as 0.01.
Work on G31A U70G G99A A125G yielded a self-cleavage of 0.2.
A30U U57A A66G U103A U127C showed a self-cleavage of 0.26.
Variant A30C A78G U120C U122A has a self-cleavage of 0.07.
With G29U A51U A55U A67G A95G U122C A129G the self-cleavage was 2.06.
A30U U72C A89G U102C showed a self-cleavage of 0.14.
With A33G A51G A117G the self-cleavage was 1.05.
A30U U37C A52G G79U A98G A116G gave a self-cleavage of 0.01.
For A33G A117U U124G, the self-cleavage was 0.06.
In the case of A33G A66G U87C, the self-cleavage is reported as 1.4.
Work on A30G G44U U120C yielded a self-cleavage of 0.84.
A30G A51U U57C U87C gave a self-cleavage of 1.22.
For A30G A36U A96G, the self-cleavage was 1.82.
For A30G A91G U131C, the self-cleavage was 1.37.
Variant A33G U37C A116G has a self-cleavage of 0.17.
With A30G A69G A90G A95G the self-cleavage was 2.53.
With A33G C85A A110C the self-cleavage was 0.1.
For A30G U37A A51G U130C, the self-cleavage was 1.02.
C32U U37C A52G U70A A92C gave a self-cleavage of 0.08.
With A33G A36U U38C A67G the self-cleavage was 1.1.
With A30G A51G A54G the self-cleavage was 1.25.
A30U A62G U102C U103C showed a self-cleavage of 0.17.
With G31A U38C A64U A78U the self-cleavage was 0.51.
With G29U A36G C71U the self-cleavage was 0.37.
In the case of A30G U38C A92G A98G U103C, the self-cleavage is reported as 0.54.
For A30G U38A A60G, the self-cleavage was 1.2.
Variant A33C A51G A110G has a self-cleavage of 0.46.
Work on A30G U130C U132C yielded a self-cleavage of 1.68.
For C32A A59G A117G, the self-cleavage was 1.31.
Variant A30G A66G A94G has a self-cleavage of 1.06.
A30G A47G A92G A110U C113U showed a self-cleavage of 0.01.
With A30U A56G A117C A135G the self-cleavage was 0.63.
With A30G A66U A126U the self-cleavage was 0.96.
With A33G A98G U127C the self-cleavage was 0.1.
A30G A94G A114U U130C U133C gave a self-cleavage of 0.04.
A30G A64G A68G gave a self-cleavage of 0.94.
Variant A30U A60G A116G has a self-cleavage of 0.55.
In the case of A30G U39A A125G A126G, the self-cleavage is reported as 0.47.
Variant A33G A52G A78U has a self-cleavage of 0.39.
A30G A33G U70C A117G showed a self-cleavage of 1.57.
